From paper PMC12136788 come the findings set out here.

This is one part of the list.

Sequences and labels used below:
B1: chr11:35810521:35810622:+|3pUTR|ENSG00000166326|unk|total|mutant (ssRNA)
RNA: GGGAGUUCUACAGUCCGACGAUCCCAGAAACCAUAAGACUCAGGCAGUUCUUGAUUCUGGAGGCCUGCCUGGUAAGAUAAGACCGUAUAAUUUGGAACUGAGAACAUACCAGAAACAGCAGAACGAGGGCCAGAGCAGAAAAACAACAGAGGAUUGAGCAUCA
B2: chr1:16124655:16124788:-|3pUTR|ENSG00000142627|msi1|FALSE|unique (ssRNA)
RNA: GGGAGUUCUACAGUCCGACGAUCAGACUGUGAACUUGACUGGGUGAGACCCAAAGCGGUCCCUGUCCCUCUAGUGCCUUCUUUAGACCCUCGGGCCCCAUCCUCAUCCCUGACUGGCCAAACCCUUGCUUUCCUGGGCCUUUGCAACAGAGGAUUGAGCAUCA
B3: ENSG00000147394:stop:overlap|stop_codon|ENSG00000147394|stop_codon|NA|stop_codon (ssRNA)
RNA: GGGAGUUCUACAGUCCGACGAUCAUCAGAUCUUCAUUCACCGUGACACCAUUCACUGUGGGAAAUGCUAUGAGAAGCUCUUCUAGCGACCCCCCACCGCCAGGCUGAUCAGAAGCUGAUGACUCGUGGACAAAUUUGGCUGUCCAACAGAGGAUUGAGCAUCA
B4: ENSG00000006125:stop:overlap|stop_codon|ENSG00000006125|stop_codon|NA|stop_codon (ssRNA)
RNA: GGGAGUUCUACAGUCCGACGAUCCAUCAGAAACACAGGAGCUAGUCCAGCAGGUCUUGAGUUUGGCAACACAGCUAAAGAAGUAGUCUUGUCUGAGAAGCCACUGAUCUCUGAGGAGACGGACCUUAUUGAGCCAACUCUGCUCAACAGAGGAUUGAGCAUCA
B5: chr5:1253166:1253831:-|three_prime_utr|ENSG00000164362|control|control|control (ssRNA)
RNA: GGGAGUUCUACAGUCCGACGAUCCUCGGCUCCACCCCAGGGCCAGCUUUUCCUCACCAGGAGCCCGGCUUCCACUCCCCACAUAGGAAUAGUCCAUCCCCAGAUUCGCCAUUGUUCACCCCUCGCCCUGCCCUCCUUUGCCUUCAACAGAGGAUUGAGCAUCA
B6: chr1:220062840:220062943:-|CDS|ENSG00000162813|unk|total|mutant (ssRNA)
RNA: GGGAGUUCUACAGUCCGACGAUCGUUUACACAGGCAGGACCAGAUGCUGUGUUGGGGAGGACAAUCUGGGGAGUUUCCGGUUCCGGCGCCUUUGGGUUUCAGCUGAAAGAAGUCCCUGCUGGGAAACACAUUAUCACAACUACCAACAGAGGAUUGAGCAUCA
B7: chr11:123627604:123627705:+|3pUTR|ENSG00000023171|unk|total|mutant (ssRNA)
RNA: GGGAGUUCUACAGUCCGACGAUCAUUUGGAUCUAUAACUGUACUUUGCCUGGCGCUGUGCGCAAGGUCAGAAAACUUACUGCCCGUACCCCGAAACACACAAGGCUGCCCAGCCAAAUCUUAAUGUAAAGCCGCCCGAGCCAUCAACAGAGGAUUGAGCAUCA
B8: chr5:172042892:172042993:-|3pUTR|ENSG00000072786|msi1|total|mutant (ssRNA)
RNA: GGGAGUUCUACAGUCCGACGAUCGAUUCUCCCGCUUCAACCUUGAGCCGCUGGGACGACAGAUACAUGCUACUGCACCCAGCCCGGUUAAGGUUCUGUAUACUCUGUCUUUCUAAAGCAAUUCCCUGGAAAUUUUCUCAACAUCAACAGAGGAUUGAGCAUCA
B9: chr7:152122106:152122213:+|3pUTR|ENSG00000178234|unk|total|mutant (ssRNA)
RNA: GGGAGUUCUACAGUCCGACGAUCAGUGGUUUUUAUCUGAUCAGGAACUUGUCAUGAUUUCCUUUCUCCGACUUCACCGGAGACCGUGCUUUAAAAAAAAAAAAAACUUCUAUUAUUUGUUCCGUAUGUUGUAAGCCGAUCAUUCAACAGAGGAUUGAGCAUCA
B10: chr1:13148904:13149928:-|three_prime_utr|ENSG00000280267|control|control|control (ssRNA)
RNA: GGGAGUUCUACAGUCCGACGAUCCCUGGACCUGAGUGGCAUCAGACUGACCAAUUACAGUCUUGUGCCUCUCCAAAUUCUCCUAGAAAAAGUUGCAGCCACCCUUGAGUACCUGGAUUUAGAUGACUGUGGCAUCAUAGACUCCAACAGAGGAUUGAGCAUCA
B11: chr1:186359875:186359976:-|CDS|ENSG00000047410|msi1_unk|total|mutant (ssRNA)
RNA: GGGAGUUCUACAGUCCGACGAUCGGAAACUCAGGAUCAGUUGCUUUUGGAGAAACCCGAGAACAAAAGAAUUAAUAAGUACCCCGAUGAAACCGUGAAAGAAGUGGAAGCCAAAGCACCAAUUUUGAAACGCCAGCGUGAGGACAACAGAGGAUUGAGCAUCA
B12: chr5:147393259:147393361:-|3pUTR|ENSG00000113657|msi1_unk|FALSE|overlapping (ssRNA)
RNA: GGGAGUUCUACAGUCCGACGAUCAGACCCAACCAUUUCUUCCACCUGCUUGAUUGUGCCAGUGUUUGCUCAGGCCUCUUUCUUAGUGUUGCUUUCAAAUCCUUCUCUUUCCUGGGUUGGGAAGGCCAGGCAGGGACAGAGCAACAACAGAGGAUUGAGCAUCA
B13: ENSG00000124422:stop:overlap|stop_codon|ENSG00000124422|stop_codon|NA|stop_codon (ssRNA)
RNA: GGGAGUUCUACAGUCCGACGAUCACGUCCUGGACAGCGAAGGGUACUUGCUGUUCUAUCACAAACAGUUCCUGGAAUACGAGUAGCCUUAUCUGCAGCUGGUCAGAAAAACAAAGGCAAUGCAUUGGCAAGCCUCACAAAGUGCAACAGAGGAUUGAGCAUCA
B14: ENSG00000197122:stop:overlap|stop_codon|ENSG00000197122|stop_codon|NA|stop_codon (ssRNA)
RNA: GGGAGUUCUACAGUCCGACGAUCCCUUCCUGGAGGACUACUUCACGUCCACCGAGCCCCAGUACCAGCCCGGGGAGAACCUCUAGGCACAGGCGGGCCCAGACCGGCUUCUCGGCUUGGAUCCUGGGCUGGGUGGCCCCUGUCCAACAGAGGAUUGAGCAUCA
B15: chr1:43623430:43623515:+|3pUTR|ENSG00000142949|msi1_unk|total|mutant (ssRNA)
RNA: GGGAGUUCUACAGUCCGACGAUCGGCGGGGAAGGGUGCACCGCUGUUUCCGCUGAGGGACGUGGUGCCGACGUCCCCAAACCCCGCCCGGCUAAGUCAAGAUCAACAUUCCAGGGUUGGUAAUGUUGGAUGAUGAAACAUUCACAACAGAGGAUUGAGCAUCA
B16: chr12:104760787:104760888:+|3pUTR|ENSG00000171310|unk|FALSE|unique (ssRNA)
RNA: GGGAGUUCUACAGUCCGACGAUCUUCUUUUCUAAUGGCAUUGAAACUUUAAAAAAAAUGGAUUCAACUGUUUUUGCAGAAUGUAGAAAGUAUUCUGUGUCCUUGGUUAAAGAAAUCCACUUGUGAAGUGUGCCUGGAAAAUGACAACAGAGGAUUGAGCAUCA
B17: chr7:66152395:66152486:+|3pUTR|ENSG00000241258|msi1_unk|total|mutant (ssRNA)
RNA: GGGAGUUCUACAGUCCGACGAUCCGUUGAGAGGAUUGUUUAUUUGAUUUUUAUCCUCAUCCCAGCAGGCCUGGCUUUGUGGUCCGUUGGGUACAUCACAAAAAUAAGUUAAAAAGAAAUAUUUGUGCCUUGGGGAGAAGAAACCAACAGAGGAUUGAGCAUCA
B18: chr10:24620413:24620514:-|CDS|ENSG00000107863|msi1|FALSE|bound_elsewhere (ssRNA)
RNA: GGGAGUUCUACAGUCCGACGAUCGUGCUAAUGAAGUAUUGUCCAAGAAGUGCAUCUCAAGGAGCACUGACGUCUCCAUCUGUUAGUUUUAGUAAUCAUAGAACUCGUUCAUGGGAUUAUAUUGAGGGACAGGAUGAAACCUUACAACAGAGGAUUGAGCAUCA
B19: chr10:126014591:126014692:-|3pUTR|ENSG00000148848|msi1|FALSE|unique (ssRNA)
RNA: GGGAGUUCUACAGUCCGACGAUCAAAGGUUUGUCUCCUGAAAUUUUUUAAGUUUGUUUUCCUGACACAUGUAAUCAGAUGUGUAGCAACCGAGGGAAACGAAGCCUAACAUUCUCCAUUGUGGAAAUACACACAGGAGGUUACCAACAGAGGAUUGAGCAUCA
B20: ENSG00000112936:stop:overlap|stop_codon|ENSG00000112936|stop_codon|NA|stop_codon (ssRNA)
RNA: GGGAGUUCUACAGUCCGACGAUCGAUGCAGAGGGCAGAGCAUCUCUGUCACCAGCAUAAGGCCUUGUGCUGCGGAAACCCAGUAGGCUCCUGGAGGCCCUGGUCAGCUUGCUUGGAAUCCAGCAGGCAGCUGGGGCUGAGUGACAACAGAGGAUUGAGCAUCA
B21: chr16:11872726:11872856:-|3pUTR|ENSG00000103342|msi1_unk|FALSE|overlapping (ssRNA)
RNA: GGGAGUUCUACAGUCCGACGAUCACAUAAUUGCCUACAAUAAUGAAAACCUACAGGAAUUUUUUUAUUUUUCAUUUUCCCCUUAGGCAUAUUUAGUAUUUUUCCCCCAGGCAGAUCAUUCUGAGUGUGCGAGUGUGUGUGCACCAACAGAGGAUUGAGCAUCA
B22: chr7:6690371:6690472:-|3pUTR|ENSG00000164631|msi1|total|mutant (ssRNA)
RNA: GGGAGUUCUACAGUCCGACGAUCUGAAAAAAAAAAAAGAAACCGAAGAUUCCUGCUGUGAAUAAACAUACUUCUUGUGUAAACCGAAACUGUAAAGUCAUCAGGACCGCCCGUUAAGUCGGUAACCUUAAACUCAUGUAAGCACAACAGAGGAUUGAGCAUCA

This test deals with MSI1 full-length (mouse, UniProt Q61474 1-362). As to the kind of experiment: nsRBNS (natural sequence RNA bind-n-seq); RBNS binding buffer (assumed for nsRBNS): 25 mM Tris pH 7.5, 150 mM KCl, 3 mM MgCl2, 0.01% Triton X-100, 500 ug/ml BSA, 20 U/ml SUPERase-In, 4 C; UNK is unkempt and MSI1 is Musashi-1; names of the RNAs are library labels; protein concentration not given here; high values mean tight binding.
Sequence of UniProt Q61474 (Q61474 whole entry): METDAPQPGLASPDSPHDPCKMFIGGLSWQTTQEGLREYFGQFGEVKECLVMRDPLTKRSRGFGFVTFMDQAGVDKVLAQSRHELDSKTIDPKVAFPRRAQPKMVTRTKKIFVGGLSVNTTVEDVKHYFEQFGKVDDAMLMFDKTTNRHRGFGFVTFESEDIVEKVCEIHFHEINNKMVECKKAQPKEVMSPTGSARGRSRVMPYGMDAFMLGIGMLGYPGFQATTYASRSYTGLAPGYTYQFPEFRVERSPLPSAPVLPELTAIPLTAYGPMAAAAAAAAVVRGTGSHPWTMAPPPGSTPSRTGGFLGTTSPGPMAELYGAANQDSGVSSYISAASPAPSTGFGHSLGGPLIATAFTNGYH
In the case of B1, the binding signal stood at 0.612 enrichment R.

Take B2: the binding signal was found to be 0.71 enrichment R.

With B3, the binding signal stood at 0.509 enrichment R.

On to B4, for which the binding signal stood at 1.31 enrichment R.

With B5, the binding signal is 1.37 enrichment R.

With B6, the binding signal is 0.433 enrichment R.

Molecule B7 returned a binding signal of 0.355 enrichment R.

In the case of B8, the binding signal is 0.391 enrichment R.

The molecule B9 displayed a binding signal of 1.74 enrichment R.

As for B10, the binding signal was determined as 0.437 enrichment R.

As for B11, the binding signal came out at 0.601 enrichment R.

B12 came in with a binding signal of 0.5 enrichment R.

As to B13, the binding signal was determined as 0.511 enrichment R.

Take B14: the binding signal came out at 0.473 enrichment R.

B15 showed a binding signal of 0.211 enrichment R.

In turn, B16 showed a binding signal of 0.433 enrichment R.

For B17, the binding signal was 0.516 enrichment R.

B18 displayed a binding signal of 4.85 enrichment R.

For the molecule B19, the binding signal turned out to be 0.329 enrichment R.

In turn, B20 returned a binding signal of 0.257 enrichment R.

In turn, B21 returned a binding signal of 6.02 enrichment R.

For the molecule B22, the binding signal was found to be 0.334 enrichment R.
